Test results reported in PubChem BioAssay AID1745853 (National Center for Advancing Translational Sciences (NCATS), 2022).
This is one part of the list. These are further read-outs of the screen, such as a control signal, another cell line or another target. No call is given for them.

Experiments:
Assay in all cases: Primary Screen for Target Class Profiling of Small Molecule Inhibitors of Methyltransferases
[1] = molecular target: Glycine N-methyltransferase (Homo sapiens) (UniProt Q14749); conditions: purified enzyme, MTase-Glo SAH luminescence; measured here: GNMT inhibition; at 40 µM; stronger effect = lower value
In short: (§1)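 Each enzyme was reacted with SAM and its substrate, with compounds tested once at 40 uM; SAH formed was read by MTase-Glo luminescence.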

[2] = molecular target: Guanidinoacetate N-methyltransferase (Homo sapiens) (UniProt Q14353); conditions: purified enzyme, MTase-Glo SAH luminescence; measured here: GAMT inhibition; at 40 µM; stronger effect = lower value
In short: as §1

[3] = molecular target: Histamine N-methyltransferase (Homo sapiens) (UniProt P50135); conditions: purified enzyme, MTase-Glo SAH luminescence; measured here: HNMT inhibition; at 40 µM; stronger effect = lower value
In short: as §1

[4] = molecular target: Nicotinamide N-methyltransferase (Homo sapiens) (UniProt P40261); conditions: purified enzyme, MTase-Glo SAH luminescence; measured here: NNMT inhibition; at 40 µM; stronger effect = lower value
In short: as §1

[5] = molecular target: Phenylethanolamine N-methyltransferase (Homo sapiens) (UniProt P11086); conditions: purified enzyme, MTase-Glo SAH luminescence; measured here: PNMT inhibition; at 40 µM; stronger effect = lower value
In short: as §1
On the % scale 0 is the no-effect control and ±100 the full control effect.

Row | SMILES | activity change, negative = inhibition [1] | activity change, negative = inhibition [2] | activity change, negative = inhibition [3] | activity change, negative = inhibition [4] | activity change, negative = inhibition [5]
1 | O=C1NCCC[C@@H]1NC(=O)[C@H]1CN(C(=O)NC2CCCCC2)CCN1S(=O)(=O)c1ccc(F)cc1 | -0.377% | -0.74% | -1.56% | 3.33% | 3.89%
2 | CNC(=O)c1ccc(Nc2ncc(C(F)(F)F)c(NCc3nccnc3N(C)S(C)(=O)=O)n2)cc1 | 4.12% | -2.26% | 4.74% | -30% | 0.829%
3 | O=C(c1ccn[nH]1)N1CCCCC1c1nc(CCOCC2CCCC2)no1 (stereo not drawn) | -5.66% | -8.53% | -5.53% | -18.1% | 1.26%
4 | CCC1c2ccc(C)n2CCN1C(=O)Nc1cccc(C)c1C (stereo not drawn) | -7.89% | -0.676% | -10.4% | 1.29% | -5.46%
5 | CN1CCN(CCCN2C(=O)c3cc4occc4n3CC2(C)C(=O)NC2CCCCC2)CC1 (stereo not drawn) | 2.48% | 0% | 7.44% | 7.85% | 5.16%
6 | CC1(C(=O)NC2CCCC2)Cn2c(cc3ccccc32)C(=O)N1CCCN1CCOCC1 (stereo not drawn) | 3.2% | 3.74% | -1.66% | 1.4% | -22.4%
7 | Cc1ccc(NC(=O)C2(c3ccc4c(c3)OC(F)(F)O4)CC2)nc1-c1cccc(C(=O)O)c1 | -11.3% | -2.11% | 9.35% | -26.8% | 0.452%
8 | COC12CC3C(C(C)C1=CC(=O)O2)C(O)C(OC(C)=O)C1C(C)(C)C(OC(C)=O)CCC31C (stereo not drawn) | 0% | 5.64% | 6.72% | -5.47% | 4.73%
9 | Cc1c(Cl)cccc1NC(=O)N1CCn2cccc2C1C (stereo not drawn) | 2.5% | 0% | 7.3% | -6.49% | 2.94%
10 | CCOc1ccc(CCNC(=O)CCn2ccc3cc(S(=O)(=O)N4CCCCC4)ccc32)cc1 | 0.98% | 4.92% | -1.88% | -2.25% | 0.604%
11 | Cc1ccc(-c2ccc3nnc(CNC(=O)COc4cccc(C)c4)n3n2)cc1 | -7.39% | -4.76% | -1.19% | -5.36% | -0.544%
12 | O=C(NCc1ccc(F)cc1)c1ccc(N2CC3CC(C2)[C@H]2CCCC(=O)N2C3)nc1 (stereo partly drawn) | -5.45% | -8.91% | -5.23% | -8.89% | -10.5%
13 | CCCN1C(=O)c2c(C(=O)NCCc3ccc(Cl)cc3)ncn2CC1(C)C(=O)NCc1ccc(OC)cc1 (stereo not drawn) | 0.543% | 2.25% | 5.33% | -0.345% | 4.88%
14 | Cc1ccc(CN2CC(=O)N(Cc3cccc(F)c3)c3ccccc3S2(=O)=O)cc1 | -5.68% | -3.65% | -6.94% | -11.1% | -11.6%
15 | CC(C)(C)c1ccc(S(=O)(=O)/C=C/C#N)cc1 | -70.5% | 10.3% | 6.74% | -5.18% | 3.74%
16 | CC(=O)Nc1sc2c(c1-c1ccc(N3CCN(C)CC3)cc1)CCNC2 | – | -5.5% | – | -27.7% | -0.82%
17 | Cc1ccc(NC(=O)N2Cc3c(sc4c3CCCC4)-n3cccc3C2c2cc(F)cc(F)c2)cc1F (stereo not drawn) | 0.093% | 4.17% | 8.15% | 9.57% | 9.23%
18 | CC1(C(=O)NC2CCCCCCC2)Cn2c(cc3sccc32)C(=O)N1c1cccc(F)c1 (stereo not drawn) | -2.67% | 4.03% | 4.88% | -0.735% | -4.05%
19 | CCOc1ccc(CN2CCN(C/C=C/c3ccccc3OC)CC2CCO)cc1 (stereo not drawn) | -6.66% | -11.1% | -7.82% | -18.6% | -17.3%
20 | CC[C@@]1(C(=O)O)C[C@H](C(=O)N(C)CCCO)[C@H](c2ccc(OC)cc2)N1C | -9.98% | 1.3% | 1.24% | 0.51% | 0.127%
